The full ranking holds about 33,000 sequences; the median of “E-score (-0.5 to 0.5)” is about -0.013, and the highest 2% start at about 0.3. This is one part of the list.

This experiment has as its target T1, Msn1 (UniProt P22148).
T1 sequence: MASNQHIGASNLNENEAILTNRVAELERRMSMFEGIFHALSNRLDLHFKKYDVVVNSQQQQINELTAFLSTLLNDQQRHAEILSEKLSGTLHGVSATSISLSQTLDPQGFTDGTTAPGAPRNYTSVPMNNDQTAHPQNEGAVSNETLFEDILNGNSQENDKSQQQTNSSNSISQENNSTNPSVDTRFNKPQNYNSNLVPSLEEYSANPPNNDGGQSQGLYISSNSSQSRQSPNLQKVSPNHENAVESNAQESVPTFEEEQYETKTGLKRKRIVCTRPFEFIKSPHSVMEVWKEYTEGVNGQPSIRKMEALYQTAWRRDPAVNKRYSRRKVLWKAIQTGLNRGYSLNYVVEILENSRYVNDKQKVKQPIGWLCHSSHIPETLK
Description: PBM E-score (8-mer binding enrichment) (E-score (-0.5 to 0.5)); higher = stronger / more preferred TF binding; most listed sequences are background and not binding sites. Conditions: protein concentration: 200 nM; construct: GST-full length. The procedure, abridged:
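PURExpress in vitro transcription/translation supplied GST-tagged yeast transcription factors, either full-length or DNA-binding domain. Applied at about 100-200 nM to universal all-10-mer Agilent arrays double-stranded by primer extension, the bound protein was detected with fluorescent anti-GST. E-scores, modified Wilcoxon-Mann-Whitney statistics, were given by the Universal PBM Analysis Suite to ungapped eight-base words pooled with their reverse complements after masliner normalisation.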
On to TATTGAGA, for which the “PBM E-score” value is 0.208.
The figure for ACCGGCGG is -0.193; for CCTTTAAG it is -0.107; for ACTGGCGG it is -0.113.
The figure for GTAAGTCA is 0.164.
For the sequence CGGCCGAC, the “PBM E-score” value came out at 0.194.
The figure for ACAGAGAA is -0.0246.
The figure for CTAGGTGC is -0.295; for CGACCGGA it is -0.0896.
The same measure for GTGGAAGA: -0.0989.
With CCAGTAAA, the “PBM E-score” value is 0.013.
The figure for GACTCTAA is -0.12; for AGTATTCA it is -0.0452; for TCATCCCA it is -0.056.
The figure for TACATCCA is -0.0268.
The figure for CGCGGTAC is 0.0431.
Turning to TCATAAGA, the “PBM E-score” value is 0.027.
The same measure for ACCGAGTG: -0.0955; for TAATTTCA: 0.25.
The same measure for CCTGGGCC: -0.332.
The same measure for AGGCTGCG: -0.0599; for ACCAAAAG: 0.179.
For AATGCAGC, the “PBM E-score” value was -0.131.
Regarding GGGGCATA, the “PBM E-score” value was -0.174.
For the sequence CCGGATAG, the “PBM E-score” value was determined as 0.133.
On to AACGATTC, for which the “PBM E-score” value worked out at 0.0798.
The figure for ACTTTCGG is 0.145; for CAAGTCGG it is 0.0181.
The same measure for CTACACAG: -0.0164; for GTAGGCAC: -0.217.
The figure for ACCAATGC is -0.0458.
On to CCGGAAAA, for which the “PBM E-score” value was 0.25.
The same measure for AGAATTGG: -0.0308.
The same measure for CGATATAA: 0.0521; for CCATCCGG: -0.251; for ACTTCAAA: -0.00228.
The figure for ACCCTTCG is -0.212.
In the case of CAAAGTAA, the “PBM E-score” value was -0.0884.
The same measure for AATTTGGA: 0.156; for AATTGTTG: 0.068; for CACTCATA: -0.0403.
With CGATGCCA, the “PBM E-score” value was -0.127.
The figure for ACAGATTG is -0.0858.
The figure for GATAAAGA is -0.029; for AAGGGCTC it is -0.275.
The same measure for CAAACCGC: 0.0708.
As for ACGCGCAA, the “PBM E-score” value came to 0.0758.
The figure for GTGACTCA is 0.0122; for GCAGTCAC it is -0.211; for ACCACCTG it is -0.104.
The same measure for ACACGACG: 0.112; for ATTTGTCA: 0.46; for ATGTAAGA: 0.159.
The same measure for ACTTCCAA: -0.12; for ATGCACAT: 0.0144; for CCGGGGAG: -0.119.
Regarding ACCAGGGA, the “PBM E-score” value is -0.144.
Take ACTAGAAT: the “PBM E-score” value turned out to be 0.13.
The figure for AACTATGT is 0.0846; for AATCAAGT it is 0.115.
The same measure for AGTACAGG: 0.202.
The same measure for GCGAAAGC: -0.0509; for ATAATGTC: 0.427.
As for AGCATTTG, the “PBM E-score” value was determined as 0.121.
For AAAGAAGG, the “PBM E-score” value was -0.0898.
Turning to CCGTAACA, the “PBM E-score” value was -0.0464.
As to CGGCTGGC, the “PBM E-score” value is -0.23.
The same measure for AAACTGTC: 0.151; for CTTGTTAA: -0.0116; for AACTGCCT: 0.0547.
The figure for CGTACGAA is 0.0187; for ATCCCCTC it is -0.234; for GAAGAAGA it is -0.129.
The figure for CTGCTGTA is -0.182.
GAGATGTA: the “PBM E-score” value was 0.0478.
The figure for CCTGCTTA is -0.103; for AAACTGCT it is -0.222; for CGGGGTGC it is -0.0594.
The figure for CTACGGTA is -0.133; for AGCGAAGA it is -0.0309.
Consider AAGCTCCG, for which the “PBM E-score” value turned out to be 0.0967.
TCGTCAAA: the “PBM E-score” value came out at 0.0563.
The same measure for CCCGTTAC: -0.0443; for AAACACAG: 0.211.
The figure for GATTTTCC is -0.0436.
The figure for AAACTGAC is 0.0261.
For ACTAATAG, the “PBM E-score” value is 0.179.
For the sequence GTACTGTA, the “PBM E-score” value is -0.0264.
In the case of ATGGCGAC, the “PBM E-score” value was 0.0843.
The figure for TCGGTCCA is -0.0358; for ACGAACTA it is 0.11; for CTCTTCAA it is -0.0922.
The same measure for TGATGCCA: -0.018.
The same measure for CGGTTGTA: -0.139; for ATTCAAAA: 0.109; for CGGCGAAC: 0.0275.
Take ATCGAGTA: the “PBM E-score” value is -0.0502.
The figure for AGTTATGA is 0.0272.
The figure for CTTTGTGC is 0.058.
The same measure for TCCACTCA: -0.212; for CCGCATTA: 0.00372.
In the case of ATACCCTC, the “PBM E-score” value stood at 0.0182.
The same measure for AAAATAAA: 0.0137.
As to GTGTGCGA, the “PBM E-score” value was -0.2.
CGGTCGAC: the “PBM E-score” value turned out to be 0.0687.
The figure for GTTGAGGA is -0.00729; for AGCCGGGA it is 0.131.
The same measure for ATGTCAGC: 0.194; for ACGGTTCT: -0.0415.
The figure for ATGTTCTC is 0.147.

The values above are taken from the supplement of paper PMC3334620.
